Source: the supplement of paper PMC12217912
The list shows a part of the results. The full chains were built here from the parent and the listed change. Values near 0.05 are background.

B1: TEV protease; numbered along this chain (parent)
chain: MGESLFKGPRDYNPISSSICHLTNESDGHTTSLYGIGFGPFIITNKHLFRRNNGTLVVQSLHGVFKVKDTTTLQQHLVDGRDMIIIRMPKDFPPFPQKLKFREPQREERICLVTTNFQTKSMSSMVSDTSCTFPSGDGIFWKHWIQTKDGQCGSPLVSTRDGFIVGIHSASNFTNTNNYFTSVPKNFMELLTNQEAQQWVSGWRLNADSVLWGGHKVFMVKPEEPFQPVKEATQL

Variants of: B1
Test: raw area under fraction-flipped curve 0-4 h after induction (AUC4h, not background-subtracted), DNA-recorder readout of cleavage of the substrate (dimensionless); higher = more cleavage of the substrate by the protease variant
Conditions: temperature: 34 °C; time window: 0-4 h after rhamnose induction
Procedure: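 In vivo DNA recorder in E. coli TOP10(DE3) ΔrhaA at 34 °C. Each TEVp single-site mutant (parent TEVp 0) is paired with a single-site variant of the 7-mer TEVs (canonical ENLYFQ|S). The substrate sits between flexible linkers in a Bxb1-sfGFP-TEVs-SsrA fusion, so cleavage stabilises Bxb1 and speeds flipping of a recombination array, read by NGS. The value is the raw area under the fraction-flipped curve over 0-4 h after rhamnose induction (AUC4h), with ≥20 reads per time point. It is not background-subtracted; inactive controls average about 0.047.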
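Note: Bxb1 expression induced with 0.2% (w/v) L-rhamnose at OD600 near 0.5, cultures sampled hourly, flipped fraction per protease–substrate barcode pair counted by paired-end Illumina sequencing.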

Variant	area with substrate ANLYFQS	area with substrate CNLYFQS	area with substrate GNLYFQS	area with substrate INLYFQS	area with substrate NNLYFQS	area with substrate PNLYFQS	area with substrate TNLYFQS	area with substrate VNLYFQS	area with substrate YNLYFQS	area with substrate DNLYFQS	area with substrate HNLYFQS	area with substrate KNLYFQS	area with substrate LNLYFQS	area with substrate WNLYFQS	area with substrate SNLYFQS	area with substrate MNLYFQS	area with substrate FNLYFQS	area with substrate RNLYFQS	area with substrate QNLYFQS
Q118S	0.0539	0.061	0.0602	0.0482	0.0624	0.0678	0.0458	0.087	0.0597										
T119H	0.063			0.0593		0.0901	0.0306			0.0592	0.0676	0.0762	0.0719	0.0625					
K120Q	0.0403			0.0648	0.0612	0.0662	0.053	0.0645	0.0646		0.0429	0.0624			0.0697				
S121D	0.0798			0.095	0.0445	0.0679	0.0595	0.0928	0.057	0.0914	0.0097	0.0576	0.0675		0.0499	0.0735			
S121L	0.0535	0.0724		0.0819	0.0636	0.0667	0.0643		0.0634		0.0547		0.0646	0.0523	0.0695	0.0539	0.0616		
S121V	0.0456	0.0736	0.0333	0.0579	0.0621	0.0755	0.0796		0.0608		0.0371	0.0762	0.064		0.0703		0.0616		
M122H	0.0721	0.0633	0.0826	0.0625		0.0637	0.093		0.0714		0.0707	0.0614		0.0555	0.0593			0.0587	
M122L	0.0857			0.0631	0.0696	0.0865	0.067			0.0988	0.048	0.0614		0.0571	0.0797		0.072		
M122W	0.0568	0.0626	0.057	0.0514	0.0896		0.082				0.0649		0.0549	0.0533			0.0773	0.079	
S123V	0.0679		0.069	0.0766	0.0695	0.0724	0.0505			0.0644	0.0576	0.0778	0.0753	0.0639	0.0535				
S124D	0.0665	0.0684	0.0633	0.0642	0.0696	0.0637	0.0658		0.0615					0.0548		0.0582			
S124E	0.062		0.0601	0.0655	0.0686	0.0887	0.0779		0.0656	0.075	0.0269	0.0681	0.0497	0.0426	0.063	0.0705			
S124M	0.0756	0.0971	0.0635		0.0589	0.0581	0.0618	0.0927	0.0629		0.0668	0.0816			0.0591	0.0601		0.0445	
S124Q	0.0618	0.0766		0.0693	0.0666	0.0665	0.0634		0.0714		0.0653		0.128	0.0568				0.0569	0.0773
M125K	0.0671	0.0665		0.0586		0.048	0.0566	0.0674			0.0643	0.0796	0.0704	0.0626		0.072	0.0657		
